Experimental data: paper PMC4336329 (PLoS ONE, 2015)
The campaign covered roughly 310,000 compounds. About 14,000 (4.5%) showed an effect of 50% or more. The effect is printed as a negative number. The list shows a part of the results.

target: human ether-à-go-go-related gene (hERG) potassium channel (human, UniProt Q12809); test: primary screen, population patch clamp on CHO cells stably expressing hERG
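Also: peak tail current of the secondary pulse compared with the same well before compound.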

human ether-à-go-go-related gene (hERG) potassium channel, sequence (Q12809 whole entry, looked up): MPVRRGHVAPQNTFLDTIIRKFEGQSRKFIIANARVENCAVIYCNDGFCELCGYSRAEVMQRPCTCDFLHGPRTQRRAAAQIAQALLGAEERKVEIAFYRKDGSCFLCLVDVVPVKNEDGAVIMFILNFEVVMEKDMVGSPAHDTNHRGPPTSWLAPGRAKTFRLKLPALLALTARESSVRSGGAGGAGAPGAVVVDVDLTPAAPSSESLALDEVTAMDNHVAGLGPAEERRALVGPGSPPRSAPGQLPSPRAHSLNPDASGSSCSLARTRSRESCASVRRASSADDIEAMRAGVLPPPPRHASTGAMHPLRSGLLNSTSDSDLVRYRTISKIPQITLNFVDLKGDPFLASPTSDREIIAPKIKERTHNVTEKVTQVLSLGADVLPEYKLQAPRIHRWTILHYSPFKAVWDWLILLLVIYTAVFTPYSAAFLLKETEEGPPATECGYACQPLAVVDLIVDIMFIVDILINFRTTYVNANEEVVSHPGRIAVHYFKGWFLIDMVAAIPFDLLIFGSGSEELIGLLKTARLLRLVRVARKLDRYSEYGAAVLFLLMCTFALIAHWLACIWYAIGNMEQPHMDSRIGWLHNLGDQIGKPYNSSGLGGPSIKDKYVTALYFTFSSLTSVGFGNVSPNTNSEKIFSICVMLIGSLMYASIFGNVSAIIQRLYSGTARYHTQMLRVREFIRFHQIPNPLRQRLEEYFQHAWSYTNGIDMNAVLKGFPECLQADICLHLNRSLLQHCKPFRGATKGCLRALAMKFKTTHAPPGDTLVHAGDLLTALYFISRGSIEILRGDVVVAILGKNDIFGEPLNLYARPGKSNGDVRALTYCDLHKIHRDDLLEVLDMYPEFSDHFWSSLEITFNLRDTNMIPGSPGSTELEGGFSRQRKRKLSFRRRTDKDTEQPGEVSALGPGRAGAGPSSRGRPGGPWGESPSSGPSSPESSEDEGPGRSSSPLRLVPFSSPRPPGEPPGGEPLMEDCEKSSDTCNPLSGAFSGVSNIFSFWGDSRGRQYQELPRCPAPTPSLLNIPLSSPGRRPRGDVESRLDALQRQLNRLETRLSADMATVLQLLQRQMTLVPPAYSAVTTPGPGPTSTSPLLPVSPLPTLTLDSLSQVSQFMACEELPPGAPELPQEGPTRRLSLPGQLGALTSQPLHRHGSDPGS

| SMILES | hERG current change (%, negative = inhibition) at 10uM [%] |
| --- | --- |
| COC(=O)C(Cc1ccccc1)NC(=O)c1cccc(S(=O)(=O)N(C)C)c1 (stereo not shown) | 2.5 |
| Cc1cc2nc(N3CCN(C(=O)c4ccco4)CC3)sc2cc1C | 0.152 |
| CN(C(=O)CSc1ncnc2sccc12)c1c(N)n(Cc2ccccc2)c(=O)[nH]c1=O | -8.17 |
| CCN(CC)CCNC(=O)c1c(C)n(-c2ccccc2)c2cc(Br)c(OC)cc12 | -51.5 |
| COc1ccc2nc(NC(=O)CSc3nc(SC)ns3)sc2c1 | 20.3 |
| O=C(CCN1C(=O)C2CC=C(Cl)CC2C1=O)NCc1ccccc1 (stereo not shown) | 0.443 |
| CC1CN(c2ccccc2)NC1=O (stereo not shown) | 8.42 |
| Cc1nn(-c2ccccc2)c2ncc(C(=O)c3cc(Cl)ccc3O)cc12 | -8.66 |
| O=C(CSc1nccc(=O)[nH]1)Nc1cccc(S(=O)(=O)N2CCOCC2)c1 | 4.22 |
| Cc1cc(NC(=O)CSc2nnc(-c3cccnc3)n2C)no1 | 15.6 |
| Cc1cc(C)cc(N2C(=O)/C(=C\c3ccc(N4CCN(C)CC4)o3)C(=O)NC2=S)c1 | -14.8 |
| COc1ccc(NC(=O)CN(C)C(=O)c2cccc(S(=O)(=O)Nc3ccc(F)cc3)c2)cc1 | -22.1 |
| COc1cccc(-c2nc(CS(=O)(=O)CC(=O)NCCc3ccc(OC)cc3OC)c(C)o2)c1 | -13 |
| Cc1cc(C(=O)NCc2ccc(S(N)(=O)=O)cc2)ccc1[N+](=O)[O-] | -8.65 |
| COc1cccc(C2C(C#N)=C(N)N(N(C)C)C3=C2C(=O)CC(C)(C)C3)c1 (stereo not shown) | -5.98 |
| CCN(CC)C(=O)c1cccc(NC(=O)c2cc(C3CC3)nc3c2cnn3C(C)C)c1 | -17.1 |
| Cc1cc(NC(=O)CSc2ccc3c(c2)OCCO3)no1 | -8.22 |
| COc1ccc(NC(=O)CS(=O)(=O)c2cn(CC(=O)N3CCOCC3)c3ccccc23)cc1 | 10.5 |
| COCCCN1CN(S(=O)(=O)c2ccc(Cl)cc2)c2nc3ccccc3nc21 | -32.7 |
| CN1CCN(C(=O)COc2ccc(-c3nc4ccccc4s3)cc2)CC1 | -21.1 |
| COc1ccc(NC(=O)COC(=O)c2cc(C)oc2C)cc1OC | 9.35 |
| COc1ccc(C(=O)c2c[nH]c(C(=O)NCc3cccs3)c2)cc1 | 0.543 |
| Cc1cc(N(CC(=O)O)S(C)(=O)=O)ccc1Br | 15.9 |
| COc1cc2c(cc1OC)CN(CC(=O)Nc1cccc([N+](=O)[O-])c1)CC2 | -31.6 |
| CC(=O)Nc1ccc(S(=O)(=O)NNC2=NS(=O)(=O)c3ccccc32)cc1 | 22 |
| COC(=O)Cc1c(C)c2ccc(OCC(C)=O)c(C)c2oc1=O | 0.128 |
| Cc1nn(CCC#N)c2c1P(=S)(N1CCCC1)OC(c1ccc(F)cc1)=N2 (stereo not shown) | -7.21 |
| CCCOc1ccc(N2C(=O)CC(N3CCC(c4nc5ccccc5o4)CC3)C2=O)cc1 (stereo not shown) | 3.27 |

| SMILES | hERG current change (%, negative = inhibition) at 10uM [%] |
| --- | --- |
| Cc1cc(C)c(C#N)c(N2CCN(C(=O)C3COc4ccccc4O3)CC2)n1 (stereo not shown) | -75.4 |
| O=C(OCc1ccc2c(c1)OCO2)c1ccc(S(=O)(=O)N2CCCCC2)cc1 | -2.65 |
| Cc1ccc(NC(=O)N(Cc2cccs2)Cc2cc3cc4c(cc3[nH]c2=O)OCO4)cc1 | 5.97 |
| CCc1ccc(NC(=O)CC2C(=O)N(c3ccc(C)cc3)C(=O)N2CCc2ccncc2)cc1 (stereo not shown) | -55.8 |
| Nc1nonc1C(=O)NCCNc1ccc([N+](=O)[O-])cc1 | -21.9 |
| Nc1ccc2nc(-c3ccccc3)[nH]c2c1 | 6.5 |
| CC1=NN(C(=O)COc2ccc(C)c(C)c2)C(O)(c2ccccc2)C1 (stereo not shown) | 0.55 |
| Cc1cccc(NC(=O)CSc2nnc(CCCCCNC(=O)OC(C)(C)C)o2)c1C | -19.1 |
| Cn1c(=O)n(Cc2ccccc2F)c(=O)c2c1nc1n2CCN1Cc1ccco1 | -5.95 |
| O=C(Nc1ccccc1)C1=C[C@H](c2ccc3c(c2)OCO3)C[C@H](OCCCCO)O1 | -33 |
| O=C(NC1CCCCC1)c1ccc(Br)o1 | 16.3 |
| O=C(c1cc(COc2cccc(C(F)(F)F)c2)on1)N1CCSCC1 | -17 |
| Cc1noc(C)c1CSc1cc(C)c2ccccc2n1 | 2.82 |
| CCn1c(=O)c2cc(C(=O)NCCC(C)C)sc2c2ccccc21 | 17.4 |
| O=C(Nc1cc(C(F)(F)F)ccc1N1CCOCC1)c1cccs1 | 3.61 |
| Cc1ccc(CNc2nnnn2C)cc1 | 9.69 |
| Nc1nc(SCC(=O)Nc2cc(-c3ccccc3)nn2-c2ccccc2)n[nH]1 | 7.5 |
| CCOc1ccc(-c2ccc(SCC(=O)N3CCOCC3)nn2)cc1 | -30.5 |
| Cc1cc(=O)[nH]c(SCc2nc3ccccc3n2Cc2ccccc2)n1 | -5.55 |
| C=CCNC(=O)c1onc(CCl)c1C(=O)OC | 11.8 |
| CN1/C(=C\C=C\C2=[N+](C)c3ccc4ccccc4c3C2(C)C)C(C)(C)c2ccccc21.[O-][Cl+3]([O-])([O-])[O-] | -75.7 |
| CC1CN(C(=O)c2cc3cc([N+](=O)[O-])ccc3oc2=O)CC(C)O1 (stereo not shown) | 5.39 |
| N#Cc1ccc(-c2ccc(OCC(O)CN3CCCCC3)cc2)cc1 (stereo not shown) | -80.7 |
| CCn1c(O)c(/C=C2\C=Nc3ccccc32)sc1=O | 0.416 |
| COC(=O)c1c(NC(=O)CSc2nc3nc(C)cc(C)n3n2)sc(C)c1C | 4.35 |
| CCOC(=O)c1ccccc1N=Cc1c(O)c2ccccc2oc1=O | 20.4 |
| COc1ccc(OC)c(-c2cc(C(=O)Nc3c(C)nn(Cc4ccccc4Cl)c3C)no2)c1 | 8.03 |
